# Assay results from the supplement of paper PMC11417369.
# ± gives the standard deviation of the averaged measurements. This is one part of the list.
# Tested on: PfAP2-EXP AP2 domain (GST-tagged)
# Assay: gcPBM binding intensity (ln(normalized median fluorescence intensity)); higher = stronger DNA binding
# Procedure, shortened: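 In this array assay, P. falciparum DNA-binding domains with a GST tag, expressed in E. coli, were applied for 1 h to primer-extended double-stranded 36-bp intergenic genomic probes and negative controls on an Agilent 4 × 180k array. Bound protein was visualised with Alexa488 anti-GST antibody at 488 nm. Binding intensity is the highest Masliner-normalised natural-log median intensity across replicate spots of either probe orientation.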
row,Sequence,gcPBM binding intensity (ln)
1,GCATAATATACTCTTACACACCATTTCTATATACAT [CACACA_site6799],9.14 ± 0.45
2,TATATATATATGTATACACACATATGTATGTTATGT [CACACA_site4053],9.65 ± 0.28
3,TTTTTCATTTCTGCATTTATTTATAAATAAATATTT [CACACA_negctrl_site368],8.96 ± 0.37
4,ATATATATTATATAAGTGCATAATATTCTTTCTTTT,8.54 ± 0.071
5,TATAAGAGAATATATACACACAAAAATATATACAGT [CACACA_site1668],8.82 ± 0.51
6,TACACGCATGGACACACACACACACCCATATATATA [CACACA_site4522],8.74 ± 0.3
7,TTCAAATATAAATACACACACATAGCTACAAAATAA [CACACA_site4172],8.95 ± 0.42
8,TTTTTTTATCAATGTTGTACTTTTTTTTTTTTCCAT [XGTACX_site8864],8.61 ± 0.43
9,TATATATTTTGTGTCTGTACACATATTATTAATTCC [XGTACX_site7507],8.59 ± 0.35
10,TATCATATATAAAGAGGTACGTAAGAATAGAAAATT [XGTACX_site798],9.28 ± 0.57
11,TAAATACATAAATACACACACATATATTATATATAT [CACACA_site4310],8.62 ± 0.14
12,ATATTAACTATCATAACACACACAGTAGACATATTT [CACACA_site6941],8.67 ± 0.44
13,TTCTTAAAAGGAAAGGTGCAACTTTATCATTTTCTT,8.51 ± 0.18
14,TAAAAAAAATATTTTTGTACGAATTAAATTTTTTTT [XGTACX_site4838],8.21 ± 0.3
15,TATGAAATTTTAATTACACACAGGAAAATAAAATGG [CACACA_site4935],8.67 ± 0.41
16,ACATATTTTTAATACACACTCAAAAAAGTACTTAAC [CACACA_site3014],8.54 ± 0.43
17,AAAAAAAGTAAATGTTGTACTATAATATGTAATATA [XGTACX_site7966],8.48 ± 0.3
18,AAATAACACTAATGATGTACTCAACTATTTATAATT [XGTACX_site8183],8.32 ± 0.38
19,AACCACATACATATAACACACATATACAATCTATAT [CACACA_site1987],8.69 ± 0.37

row,Sequence,gcPBM binding intensity (ln)
1,TACATATATATTATATGTACTTATATTTTTATAATA [XGTACX_site3452],8.14 ± 0.3
2,ATATACATATCCATATTTATATCTATATTTAAAACA [CACACA_negctrl_site747],8.15 ± 0.4
3,TAGAGGTATAAAATATGTACTTATAAAAACATGAAT [XGTACX_site8916],8.85 ± 0.37
4,AGAGGTAGAGAGAAAACATGCATAATGATTTTCATA [TGCATGCA_site958],8.46 ± 0.53
5,TTTTCCAATTTAAAAGCATGCATCTGTTTTTTTTTT [TGCATGCA_site482],9.02 ± 0.57
6,AAATTATTAAGTGATATAATATTCTATAGATGGGGA [CACACA_negctrl_site168],8.46 ± 0.43
7,TATATGATATAATATACACACATACAGATATATATA [CACACA_site4440],8.46 ± 0.33
8,TATTTACACCTAATCACAAATAAAATAAAATCAAAT [CACACA_negctrl_site531],8.59 ± 0.51
9,TTTTTATAACTATATTATATAACTTTTGTACGAACT [CACACA_negctrl_site1423],8.23 ± 0.18
10,ACATATAAATAAATAAATATATATATATATATATAT [GTGCAC_negctrl_site378],10.1 ± 0.42
11,TAAATCAAAATAATTTAACACACAATTTTAATACTG [CACACA_site8744],8.14 ± 0.3
12,GATAAGGTATTCAAATGTACAAAATGTTTTATATAA [XGTACX_site6863],8.39 ± 0.43
13,ACTTATACAAAATGTGCATGTTATATTTACAATAAT [TGCATGCA_site108],8.79 ± 0.29
14,AAATTAAATGTAAGCACACATAAATTATACTCATAT [CACACA_site5782],8.36 ± 0.33
15,GGAATAGTAATATATACACACAAATACATATATATA [CACACA_site67],8.74 ± 0.2
16,TTTATTTTTTAATGATGTACTATTTATCCAGAAAAG [XGTACX_site7750],8.43 ± 0.27
17,ATAAGCTCATGCAGGTGTACACAAAAAGAAAAAAAA [XGTACX_site2433],9.15 ± 0.35
18,ATAATGAAAAGGAACATACACACCCCATATAAATAT [CACACA_site3442],9.4 ± 0.83
19,AAAAAATTCAAAAGGTGTACAACATTATATTATTCC [XGTACX_site5118],8.53 ± 0.3

row,Sequence,gcPBM binding intensity (ln)
1,TATTGTTTTTTTTACTGTACACAAGTAAATGAAAAA [XGTACX_site790],8.37 ± 0.35
2,TCTGTATATTATTCAAGTACACAATATAAATATAAA [XGTACX_site7241],8.41 ± 0.22
3,GAACAAATTAAATAGGTGCATTAACATGTTCTATTT [GTGCAC_site9729],8.76 ± 0.092
4,AAAAATAAAAAAATAAATACGTATACATATATAATA [TGCATGCA_negctrl_site551],8.52 ± 0.32
5,GATAACTTTTTTCTCACACACAAATATTTTAATCAT [CACACA_site7685],8.71 ± 0.39
6,GTATATAATTAAAGTTGTACCCTTAAAAAAGGGAAA [XGTACX_site7278],8.41 ± 0.19
7,AAAATGAAAATGAAAATGAAAATGGGAAAATGTCAA [TGCATGCA_negctrl_site488],8.95 ± 0.56
8,TATAATTATATGTATACACACACATACATTTACATA [CACACA_site9061],8.92 ± 0.27
9,CATATATATCGTAATGCACACATGTAATTTCATAAT [CACACA_site811],8.85 ± 0.17
10,TAAATAAAAAAGAATACACACAGCATGCATAAATAT [CACACA_site237],9.6 ± 0.53
11,TTATATATAAGTTTATTCATTTTTTTTTTTTTTTTT [XGTACX_negctrl_site573],8.44 ± 0.18
12,TAACACCAAACTAAATGTACACACATACATAAATAT [XGTACX_site2201],8.72 ± 0.59
13,TCTTATATGATATTTATTTATTTATTTATTTATTCA [GTGCAC_negctrl_site686],8.39 ± 0.28
14,AATGAATAATTATTTTGTACATAATATTATATTTAT [XGTACX_site5350],8.34 ± 0.36
15,TTTATTTTTTGTGGCACACAGAAGAAACAAGAACAA [CACACA_site1696],9.12 ± 0.35
16,TAAATGTGAACAATAGAAGTAATAAGAAGAATAAAA [CACACA_negctrl_site1080],8.94 ± 0.39
17,AATAGTAATTTGAATACACACAATAATATATTTATA [CACACA_site7055],8.41 ± 0.31
18,CAACTAATATTAAAACGTACATAAATATTTAACAGA [XGTACX_site625],8.71 ± 0.35
